Assay results: PubChem BioAssay AID1508623 (National Center for Advancing Translational Sciences (NCATS), 2021)
The whole screen tested about 48,000 compounds, of which about 450 (0.94%) were called active. About 19% were inconclusive and are not listed. Calls come from the whole dose curve; as a rule, active = well fitted inhibition curve with a large enough effect; inconclusive = small, poorly fitted or top-dose-only effect; inactive = no such curve, though single readings can be large or run the other way. The list shows a part of the results.

Test: Primary qHTS for Identification of Small Molecule Inhibitors of Huntingtin Promoter Activity; note: nearly all actives have a fitted effect of over 50% in size
Details: HEK293 HTT promoter firefly luciferase reporter (activity 0% = vehicle and -100% = no light), 24 h; series mostly up to 57.5 µM; activity change, negative = inhibition: at the top concentration
Procedure, shortened: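 HEK293 luciferase promoter-reporter cells (2,500/well) plated 24 h, then compounds added at up to 57.5 uM final for 24 h at 37 °C. Firefly luminescence by Dual-Glo, normalized to vehicle (0%) and zero RLU (-100%).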
Potency is the fitted concentration of half-maximal effect.

Activity change, negative = inhibition, inactive:
Cn1c2ccccc2c2cnn(CC(=O)Nc3ccccc3F)c(=O)c21 -7.97%
Cc1cc(C)cc(NC(=O)c2c(C)oc3nc(C)nc(N4CCCC4)c23)c1 1.51%
CCOc1ccc(Nc2nn(-c3ccc(OC(F)(F)F)cc3)nc2C(C)=O)cc1 -10.9%
COc1cccc(-c2noc(-c3cc(C(C)C)[nH]n3)n2)c1OC 66.6%
CC(=O)OC[C@H]1O[C@@H](OC(C)=O)[C@H](OC(C)=O)[C@@H]1OC(C)=O 0.324%
COc1ccccc1CNC(=O)CCNS(=O)(=O)c1ccc2c(c1)oc(=O)n2C -4.64%
O=C(COc1ccc(F)cc1)NCc1ccc2c(c1)CCN2C(=O)c1ccccc1 -4%
CNC(=O)c1ccc2c(c1)N(Cc1ccccc1Cl)C(=O)c1ccccc1S2 -5.29%
O=C(Cn1c(=O)nc(-c2ccccc2F)c2cc(Cl)ccc21)NCCCc1ccccc1 -15.3%
CCc1cccc(C)c1Nc1c(-c2ccsc2)nc2ncccn12 -29.6%
COc1ccc(N2CCN(Cc3nnc(-c4ccc5c(c4)OCO5)o3)CC2)cc1 -9.88%
Clc1ccc(-c2noc(-c3cccnc3NCc3ccco3)n2)cc1 52.4%
Cc1ccc(-n2nc(C)c3nc(CCC(=O)Nc4cccc(F)c4)c(=O)n(C)c32)cc1 -1.82%
Cc1cccc(CNC(=O)CCCN2C(=O)CCn3nc(-c4cccn4C)cc32)c1 0%
COc1ccc2c(c1)c(CC(=O)OCC(=O)O)c(C)n2C(=O)c1ccc(Cl)cc1
CCOc1c(Cl)cc(C(=O)N(Cc2ccc(N(C)C)cc2)Cc2ccco2)cc1Cl -11.9%
COc1ccc(CNC(=O)C2CCCN(c3nnc(C)c4c(C)n(-c5ccc(C)cc5)nc34)C2)cc1 (configuration not stated) 0.547%
CCC(Sc1nc2ncccc2o1)C(=O)Nc1ccc(OC)c(OC)c1 (configuration not stated) 14%
Cc1ccc2c(=O)cc(C(=O)Nc3sc4c(c3C(=O)NCC3CCCO3)CCCC4)oc2c1 (configuration not stated) -0.466%
COc1ccc(C2CC(=O)c3cc(-c4nc(-c5cccc(Cl)c5)cs4)c(=O)[nH]c3C2)cc1 (configuration not stated) -18.9%
O=S(=O)(c1ccc(Cl)cc1Cl)n1ccnc1 -1.87%
O=C(Cn1ncc2c3ccccc3n(Cc3ccc(F)cc3)c2c1=O)NCc1ccccn1 -13.6%
Cc1ccc(SCC(=O)Nc2ccc3oc(-c4cccc(Cl)c4)nc3c2)cc1 6.14%
O=C(NCc1ccccc1)C(=O)Nc1c2c(nn1-c1ccccc1)CSC2 -25%
COc1ccc(OC)c(CNCc2c(C(=O)O)n(Cc3cccc(F)c3)c3cc(OC)ccc23)c1 -13.6%
Cc1ccc(C(c2c(O)cc(C)n(Cc3ccco3)c2=O)N2CCC(C)CC2)cc1 (configuration not stated) -5.8%
CC(=O)OC1C(C)OC(Oc2c(-c3ccc(O)cc3)oc3cc(O)cc(O)c3c2=O)C(O)C1OC(C)=O (configuration not stated) 7.43%
COc1ccc2cc3[n+](cc2c1OC)CCc1cc2c(cc1-3)OCO2 -25.5%
Cc1cc(C)cc(NC(=O)C2CC(=O)N(c3ccccc3)C2)c1 (configuration not stated) -15.3%
O=C(CCn1c(=O)c2sccc2n(Cc2ccc(F)cc2Cl)c1=O)NCc1ccc2c(c1)OCO2 -5.69%
O=C(Nc1sc2c(c1C(=O)NCC1CCCO1)CCCC2)c1cc(=O)c2ccccc2o1 (configuration not stated) -4.59%
Cc1ccc(-c2nc3ccccc3o2)cc1NC(=O)Cc1ccc(Cl)cc1 -6.13%
Cc1ccc(-c2cc(C(=O)Oc3ccc(C#N)cc3)no2)cc1C 15.7%
COC(=O)c1ccccc1NC(=O)CSc1nc(C)c(Cl)c(C)c1C#N -14.1%
CCCCCCCCCCOCC(O)CN (configuration not stated) -16%
Cc1ccc2c(c1)c1c(c(=O)n(Cc3ccccc3)c(=O)n1CC(=O)Nc1ccccc1F)n2C -1.75%
COCCNC(=O)CCCn1c(SCC(=O)NCc2ccc(C)cc2)nc2c(sc3ccccc32)c1=O -2.18%
CCC(C)NC(=O)c1sc2nc(C)c(C(=O)Nc3ccc(C)cc3C)c(-c3ccc(NC(C)=O)cc3)c2c1N (configuration not stated) -28.6%
O=C(O)c1ccc(Cn2c(SCc3ccc(F)cc3)nc3ccncc32)cc1 4.54%
Cc1ccc2nc(NC(=O)CSc3nccn3Cc3ccc(F)cc3)sc2c1 -16.2%
COCCNc1ccc2cc(S(=O)(=O)N3CCCCC3)ccc2n1 3.16%
Cc1ccccc1Cn1c(=O)n(-c2ccc(Cl)cc2)c(=O)c2c3c(sc21)CCCC3 -7.33%
CCc1ccc(NS(=O)(=O)c2[nH]ncc2C(=O)OC)cc1 1.66%
CC(C)NC(=O)CN1C(=O)CCn2nc(-c3cn(C)c4ccccc34)cc21 22.3%
COc1ccc(OC)c(S(=O)(=O)NCC(c2cccs2)S(=O)(=O)c2ccc(F)cc2)c1 (configuration not stated) -29.4%
CCCS(=O)(=O)N1CCC(C(=O)NCCOC)CC1 -10.8%
O=C(c1cc2c(=O)oc3ccccc3c2s1)N1CCN(c2ccccc2)CC1 -0.156%
COc1ccc2c(c1)c1c(c(=O)n(-c3cccc(C)c3)c(=O)n1Cc1cccc(Cl)c1)n2C -13.2%
Cc1ccc(-n2nc(C)c3c(C)cc(=O)n(CC(=O)Nc4cccc(C)c4C)c32)cc1 -8.14%
O=C(Nc1cc2c(cc1C(=O)c1ccccc1Br)OCCO2)c1cccc(Cl)c1 1.95%
COc1ccc(-c2nn(-c3ccccc3)cc2C2NC(=O)NC(C)=C2C(=O)OC(C)C)cc1OC (configuration not stated) -3.79%
Cc1ccc(-c2noc(-c3nnn(-c4cccc(C(F)(F)F)c4)c3N)n2)cc1 5.38%
O=S(=O)(c1ccc2nc(N3CCN(c4ccccc4F)CC3)ccc2c1)N1CCCCC1 1.04%
Cc1nc(-n2nc(C)c(CCC(C)C)c2C)sc1C(=O)Nc1ccc(Cl)cc1 -8.04%
CCOC(=O)c1c(S(=O)(=O)N2CCCC(C(=O)NCc3ccccc3OC)C2)c(C)n(C)c1C (configuration not stated) -8.21%
CCc1nc(SC)ncc1C(=O)N1CCN(c2cc(C)ccc2C)CC1 -21.7%
Cc1ccc(NC(=O)c2ccc(=O)n(Cc3ccccc3C)c2)c(C)c1 -18.5%
Cc1ccc(CN2CCCn3nc(C(=O)NCCc4cccc(C)c4)cc3C2=O)cc1 -36.5%
Cc1ccc(-c2nc(N3CCCC(C)C3)c3ccccc3n2)cc1 (configuration not stated) -9.74%
CCc1ccccc1NC(=O)CSc1nc2c(oc3ccccc32)c(=O)n1C -11.7%
NC(=O)C1CCN(S(=O)(=O)c2ccc(N3CCCCS3(=O)=O)cc2)CC1 -3.52%

Potency, active:
Cc1cccc(-c2nc(CN3CCCC(C(=O)NCCc4ccc(Cl)cc4)C3)c(C)o2)c1 (configuration not stated) 31.6 µM
